Out of some 150,000 compounds screened, about 540 (0.36%) showed an effect of 50% or more. Some of the results follow.
Tested on: Plasmodium falciparum
Assay: Primary screen in NF54 nanoGlo assay, in single point, at 2uM, 72h; a lower Z score goes with more inhibition
Assay type: functional, Erythrocyte
Conditions: timepoint 72 hour

SMILES	% Inhibition [%]	Z score
O=C(CN1CCC(Cn2c(C(F)(F)F)nc3ccccc32)CC1)Nc1nccs1	11	-1.94
Cc1cnc(C(=O)N2CCCCCCNC(=O)[C@@H]3CCCC[C@@H]32)cn1	11	-1.47
COc1nc2c(cc1CN1CC[C@H]1c1ccc(F)cc1)C(=O)N(C(C)C)C2	4	-0.51
Cc1nnsc1C(=O)NCC[C@H](O)c1ccco1	-20	2.9
CC(C)(C)CC(=O)N1CCC2(CC1)N[C@H](C(=O)N1CCCC1)Cc1[nH]cnc12	-15	2.28
N[C@H]1CCC[C@@H](c2nc(Cc3c(Cl)cccc3Cl)n[nH]2)C1	-19	1.79
Cc1ccc(C)c(S(=O)(=O)Nc2cc(-c3ccoc3)no2)c1	1	-0.07
Cc1cc(=O)c(C(=O)N2CCc3ccc(Br)cc32)c[nH]1	3	-0.36
CC(C)(C)c1nc(N2CCC(CCCn3ccnc3)CC2)no1	2	-0.32
COCC1(S(=O)(=O)N2CCS(=O)(=O)C(C)C2C)CC1 (stereo unspecified)	-2	0.44
Cn1c(C(=O)OC[C@H]2CCCN2C(N)=O)cc2ccccc21	5	-0.74
Cc1ccccc1OCCn1c(C(F)(F)F)ccc(C(N)=O)c1=O	1	-0.12
Cc1cc2ncc3c(n2n1)CCN(C(=O)c1ccc2nsnc2c1)C3	-12	1.94
Cc1ccsc1-c1nc(CN2CCC(O)(CO)CC2)c(C)o1	-10	1.27
CN(C)S(=O)(=O)c1ccc2c(c1)CCN2C(=O)CC1CC2CCC1C2 (stereo unspecified)	10	-1.15
O=C(c1csc(Nc2ccccc2Cl)n1)N1CCc2ccccc2C1	1	-0.19
c1ccc([C@@H]2CN(C3CC3)CC3(CCN(Cc4ccncc4)CC3)C2)cc1	-1	0.23
O=C(Nc1ccccc1)c1cc(N2CCOCC2)nc2ccccc12	-3	0.38
N#Cc1nccnc1N1CCC[C@]2(CC=CCC2)C1	0	-0.03
CCc1cccnc1C(=O)N1CCN(C(=O)c2ccc3[nH]cnc3c2)CC1	-7	0.88
CCCNC(=O)[C@H](C)Nc1cccc(C)c1C	4	-0.82

SMILES	% Inhibition [%]	Z score
COc1cc(-c2noc(-c3ccc(C)cc3)n2)ccc1OCC(=O)Nc1ccc(C)cc1	-9	1.69
Cn1c(CCCN2C(=O)C(C(N)=O)C3CC2(C)Oc2ccccc23)nc2ccccc21 (stereo unspecified)	-6	0.81
O=C(NCc1ccccc1OC1CCC1)N(CCO)C1CC1	36	-0.86
CCn1ncnc1-c1nccn1CC1(O)CCCCC1	-7	1.14
O=C(CCCC1CCCCC1)N1CC(n2ccnn2)C1	-1	0.14
Cc1nnc(NC(=O)[C@H]2O[C@@H]3OC(C)(C)O[C@@H]3[C@H]3OC(C)(C)O[C@H]32)s1	-8	0.97
CC(C)N(C)CC(=O)Nc1cc(-c2ccccc2)on1	35	-3.58
CN1C[C@@H](O)CNS(=O)(=O)c2ccc(C3CCOCC3)cc2O[C@H]2CN(CC3CCCCC3)C[C@H]21	3	-0.54
Cc1cc(C)n(-c2ccc(-c3nc(-c4c(C)ncc5c4CCNC5)no3)cc2)n1	-6	0.72
Cn1nc(-c2ccccc2Cl)nc1NC(=O)[C@H]1CCOC1	-5	0.9
Cc1n[nH]c(C)c1C(=O)N1CCC(n2cc(CN3CCCC3(C)C)nn2)CC1	11	-1.44
CCn1nncc1C(=O)N(C(C)C)[C@H]1CCOC1	0	-0.04
Cc1nc(C)c(S(=O)(=O)NC[C@H](C)c2ncon2)s1	-1	0.21
c1ccc(-c2ncn(C[C@H]3CCCCO3)c2-c2ccnc3ccccc23)cc1	-4	0.55
C[C@H]1C[C@@H](C(F)F)n2ncc(C(=O)NC3CC3)c2N1	1	-0.22
O=C(NCc1cccs1)[C@H]1CCCN(c2nc3ccc(Cl)cc3[nH]2)C1	-2	0.32
O=C1CC[C@H](C(=O)N2CC(Cc3ccccc3)C2)N1	-4	0.93
CCCc1noc(CN(C)C(=O)c2ccc3nc(C4CCCCC4)oc3c2)n1	-1	0.09
CCc1nc(C(C)C)ccc1C(=O)N(C)C[C@H]1CCN(C(C)=O)C1	4	-0.63
CCOC(=O)N1CCC(N2CCC(CO)(C[C@H]3CCCCO3)CC2)CC1	-7	0.97
CC(=O)c1ncc(C(=O)N(CCN(C)C)C[C@H]2CCCO2)s1	20	-2.49

SMILES	% Inhibition [%]	Z score
C[C@@H](N)C(=O)N1CCc2onc(C(c3ccccc3)c3ccccc3)c2C1	-14	1.69
CN(C(=O)CCc1ccsc1)c1ccccc1S(C)(=O)=O	1	-0.19
CC(C)c1c(C(=O)N2CCN(Cc3ccccc3)CC2)cnn1-c1nccc(-c2cccs2)n1	-6	1.06
CCOCC(=O)N1CCN(Cc2ccc(C)o2)[C@@H]2CS(=O)(=O)C[C@@H]21	1	-0.1
C[C@]1(NC(=O)c2occ3c2CCOC3)CCOc2ccccc21	-8	1.48
Cc1cc(Br)ccc1CN(C)CC(=O)Nc1cccnn1	-2	0.33
Cc1cnc(CNC(=O)[C@H]2CCCO2)o1	-5	0.56
Cc1ccc(N(C)C(=O)c2cccnc2N(C)C)c(C)c1	-6	0.78
O=C1CC[C@H](NC2CCCCCCC2)CCN1Cc1cc2c(cc1Cl)OCO2	15	-1.65
CC(C)(C)OC(=O)N/N=C(/N)Cc1ccc(Cl)cc1	-3	0.34
O=C(NCc1nc(C2CCCCC2)no1)C1(N2CCCC2)CCCCC1	-7	0.84
CC1CN(C(C)C(=O)Nc2ccccc2-c2ccccc2)CCO1 (stereo unspecified)	-3	0.37
C[C@H](NC(=O)NC1(C(N)=O)CCCC1)c1ccsc1	-7	0.77
O=C(Cc1cccc(O)c1)N(CCc1ccccc1)[C@H]1CCOC1	-8	0.91
Cc1nc2ccccc2c(NC(=O)[C@H]2CCN(C)C(=O)C2)c1C(C)C	-8	1.15
COCC[C@]1(NS(=O)(=O)c2ccccc2)CCN(C(=O)c2cnn(C)c2C)C1	-14	1.57
Cc1ccsc1-c1nsc(NC(=O)N[C@H]2CCO[C@@H]2c2ccncc2)n1	-4	0.37
Cc1ccsc1-c1[nH]nc(N)c1-c1ccc2c(c1)OCO2	-3	0.44
C[C@H]1CCCN(c2ccc(C(N)=O)cc2NC(=O)c2onc3ccccc23)C1	2	-0.23
CC[SH](=O)(O)c1ccc2c(c1)N(CC(=O)N1CCN(c3ccc(OC)cc3)CC1)C(=O)CO2	27	-3.04
Cc1cc(CNC(=O)N2CCC[C@H](c3cncn3C(C)(C)C)C2)on1	-9	1.23

SMILES	% Inhibition [%]	Z score
CCc1ncc(CN(C)Cn2c3c(sc2=O)C[C@@H](C)CC3)s1	-15	1.55
Cc1cnc(CC2CCN(C(=O)c3ccco3)CC2)n1CC1CC1	-16	2.23
Cc1cncc(CCC(=O)NC[C@]23C[C@H]2COC32CCC2)c1	-1	0.18
Cn1cnnc1N1CCN(C(=O)Nc2c(F)cc(F)cc2-c2ccccc2)CC1	-4	0.71
N#Cc1c(NC(=O)C2CCCC2)sc2c1CCC2	-4	0.78
Cc1nc(-c2ccc(Cl)c(S(=O)(=O)N3CCC(C(=O)Nc4cccnc4)CC3)c2)no1	7	-0.93
CCOC(=O)c1noc2nc(C)nc(NC3CCN(Cc4ccccc4)CC3)c12	-17	3.15
O=C(Nc1ccc2c(c1)CCC2)c1ccc2ccccc2n1	32	-2.72
COC[C@H](NC(=O)C1(C)COC1)c1ccccn1	6	-0.8
Cc1nc(N2CCCC2)ccc1Nc1ncnc2onc(C)c12	-1	0.13
Cc1nc2ccnn2c(C)c1CCC(=O)N[C@H]1C[C@H](CO)C1	5	-0.81
CCc1nn(CC(=O)N2CCN(c3ccccn3)CC2)c(=O)c2cc3ccccc3n12	-10	1.33
Cn1cc(Cl)c(C(=O)N(Cc2ccncc2)C[C@H]2CCCO2)n1	-6	1.05
Cc1ccc(C)c(S(=O)(=O)Nc2ccc(-c3cc4cc(Cl)ccc4[nH]3)cc2)c1	-15	1.29
COc1nccnc1N1CCC2(CC1)CC(=O)N(Cc1c(C)noc1C)C2	-7	1.26
c1cc(CN2CCN(c3ccc4nccn4n3)CC2)ccn1	-17	1.46
C[C@@H](c1ccccc1)n1cc(NC(=O)CN2CCN(C)C(=O)C2)cn1	-3	0.47
CCC(CC)n1nccc1C(=O)NCC(C)(C)c1ccc(C)cn1	-10	1.55
O=C(c1cccnc1)N1C[C@H]2CC[C@@H](C1)N(C(=O)NCc1ccccc1)C2	-16	1.59
C[C@H]1Cc2ccccc2N1C(=O)CN1C(=O)c2cc(Cl)c(Cl)cc2C1=O	-16	2.43
